Assay results as given in PubChem BioAssay (NCATS).
Inconclusive means that the source gave no clear call. Such entries were picked first, then a sample of the others. No potency is given beside an inconclusive call; the fits are too rough. Where a structure was tested more than once in an assay, its records may differ in their call. The source made the active and inactive calls. Unless noted, calls come from the whole dose curve; as a rule, active = well fitted inhibition curve with a large enough effect in the repeat runs; inconclusive = weak or mixed curves; inactive = flat fitted curve, though single readings scatter.

Test system: not listed separately
Experiment: A High-Content qHTS Against Drug Library for the Identification of Small Molecules that Inhibit DYT1 Early Onset Primary Dystonia-Associated Cell Pathology (AID 1645839; calls by dose curve)
Settings: HEK293 Flp-In EGFP-delE TorsinA, punctate imaging, 48 h; series mostly up to 46.1 µM
Procedure, shortened: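 High-content imaging quantified EGFP-TorsinA mislocalization in HEK293-derived cells inducibly expressing DYT1 mutant torsinA, after 48 h exposure to compound given together with tetracycline induction. Cell count served as a toxicity channel alongside %pathology.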
Potency is the fitted concentration of half-maximal effect; tags give direction and shape of the fitted curve.

| Compound | Potency |
| --- | --- |
| C[C@@H]1O[C@@H](O[C@H]2C[C@@H](O)[C@]3(CO)[C@H]4[C@H](O)C[C@]5(C)[C@@H](C6=CC(=O)OC6)CC[C@]5(O)[C@@H]4CC[C@]3(O)C2)[C@H](O)[C@H](O)[C@H]1O | inconclusive [inhibitor, full curve, poor fit] |
| Oc1cc(Cl)ccc1Oc1ccc(Cl)cc1Cl | inconclusive [inhibitor, single point] |
| C=C(C)[C@H]1Cc2c(ccc3c2O[C@@H]2COc4cc(OC)c(OC)cc4[C@@H]2C3=O)O1 | inconclusive [inhibitor, full curve, poor fit] |
| CCCCCCCCCCCC[N+](C)(C)CCOc1ccccc1 | inconclusive [inhibitor, single point] |
| C[C@]12CC[C@@H]3c4ccc(OC(=O)N(CCCl)CCCl)cc4CC[C@H]3[C@@H]1CC[C@@H]2O | inconclusive [inhibitor, single point] |

Target: Cytochrome P450 2D6 (Homo sapiens) (UniProt P10635)
Sequence of UniProt P10635 (P10635 whole entry, looked up): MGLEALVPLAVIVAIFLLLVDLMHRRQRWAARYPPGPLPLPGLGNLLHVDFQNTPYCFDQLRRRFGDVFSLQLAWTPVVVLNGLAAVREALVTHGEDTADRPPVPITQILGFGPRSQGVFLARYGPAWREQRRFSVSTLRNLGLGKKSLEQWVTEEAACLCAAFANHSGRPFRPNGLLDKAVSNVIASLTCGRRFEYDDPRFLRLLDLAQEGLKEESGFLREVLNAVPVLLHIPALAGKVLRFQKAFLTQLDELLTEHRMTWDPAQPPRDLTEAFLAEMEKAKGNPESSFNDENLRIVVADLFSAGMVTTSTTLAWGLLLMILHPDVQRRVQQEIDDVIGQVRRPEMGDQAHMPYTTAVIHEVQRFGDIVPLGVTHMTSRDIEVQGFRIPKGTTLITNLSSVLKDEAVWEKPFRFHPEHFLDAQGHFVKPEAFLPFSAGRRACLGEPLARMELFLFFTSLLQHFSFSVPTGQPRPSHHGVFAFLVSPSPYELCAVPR
Experiment: Cytochrome P450 family 2 subfamily D member 6 (CYP2D6) small molecule antagonists: luciferase biochemical (cell-free) qHTS assay (AID 1645840); note: nearly all actives have a fitted effect of over 55% in size
Settings: P450-Glo CYP2D6 enzyme, luciferin luminescence, 1 h; series mostly up to 57.4 µM
Procedure, shortened: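 P450-Glo CYP2D6 system: proluciferin substrate converted by enzyme to luciferin, read by luminescence proportional to activity. Enzyme-substrate mix with compound 10 min at room temperature, then NADPH regeneration 1 h before detection reagent.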

| Compound | Potency |
| --- | --- |
| C[C@]12CC[C@H]3[C@@H](CCC4=CC(=O)CC[C@@H]43)[C@@H]1CC[C@@H]2OC(=O)CCc1ccco1 | inconclusive [inhibitor, single point] |
| COC(=O)C1=CCCN(C)C1 | inactive |
| C=CC[C@]1(O)CC[C@H]2[C@@H]3CCC4=CC(=O)CCC4=C3C=C[C@@]21C | inconclusive [inhibitor, full curve, poor fit] |
| CCC1(C2=NCCN2)Cc2ccccc2O1 (configuration not stated) | inconclusive [inhibitor, partial curve, poor fit] |
| COC1(C[S@@](=O)c2ccccc2)CCN(CCc2c[nH]c3ccc(F)cc23)CC1 | active: 2.39 µM |
| Cc1c(C(=O)Nc2cccc(C(F)(F)F)c2)cc(-c2ccccc2)n1CCCN1CCOCC1 | inconclusive [inhibitor, full curve] |
| Cc1nc2ccccc2c(=O)n1-c1ccccc1Cl | inconclusive [inhibitor, partial curve, poor fit] |
| O=S(=O)(c1ccccc1F)N1CCOc2c(N3CCNCC3)cccc21 | inactive |
| CC(O)(c1ccccc1)C(Cc1ccc(Cl)cc1)n1cncn1 (configuration not stated) | inconclusive [inhibitor, single point] |
| CCO/N=C(\CC)C1=C(O)CC(c2c(C)cc(C)cc2C)CC1=O (configuration not stated) | inconclusive [inhibitor] |
| O=C(O)c1nn(Cc2ccc(Cl)cc2Cl)c2ccccc12 | inactive |
| Clc1ccc(OCC2=NCCN2)cc1Cl | active: 8.49 µM |
| CCCC1CCCCN1 (configuration not stated) | inconclusive [inhibitor, single point] |
| O=C(NCCN1CCC2(CC1)C(=O)NCN2c1cccc(F)c1)c1ccc2ccccc2c1 | active: 2.68 µM |
| CN1C[C@@H](NS(=O)(=O)N(C)C)C[C@@H]2c3cccc4c3c(cn4C)C[C@H]21 | active: 2.19 µM |
| CCNc1nc(Cl)nc(NCC)n1 | inactive |
| CN1C(=S)CN=C(c2ccccc2)c2cc(Cl)ccc21 | inconclusive [inhibitor, single point] |
| CN1C(=O)CN=C(c2ccccc2)c2cc([N+](=O)[O-])ccc21 | inactive |
| CCOC(=O)CC(SP(=S)(OC)OC)C(=O)OCC (configuration not stated) | active: 39.9 µM and inactive |
| CNC(C)(C)Cc1ccccc1 | inconclusive [inhibitor, partial curve] |
| Nc1ccccc1 | inconclusive [inhibitor, single point] |
| C[C@]12CCC(=O)C=C1CC[C@@H]1[C@@H]2CC[C@@]2(C)[C@H]1CC[C@]2(C)O | inactive |
| CC(Cc1ccccc1)NC=O (configuration not stated) | inconclusive [inhibitor, single point] |
| O=S(=O)(c1ccc(Cl)cc1)c1ccc(Cl)cc1 | inconclusive [inhibitor] |
| CCCCOC(=O)c1ccccc1C(=O)OCc1ccccc1 | inconclusive [inhibitor, single point] |
| C[C@]12CC[C@H]3[C@@H](CCC4=CC(=O)CC[C@@H]43)[C@@H]1CC[C@@H]2OC(=O)CCC1CCCCC1 | inconclusive [inhibitor, single point] |
| CC1=C2[C@H]3OC(=O)[C@@H](C)[C@@H]3CC[C@@]2(C)C=CC1=O | inactive |
